Each structure is given as a SMILES string. The list shows a part of the results.

The test concerns T1, C. trachomatis L2/434/Bu expressing GFP (CTL2-GFP).
T1 construct: L2/434/Bu GFP intracellular growth in HeLa cells
Also on record: species or system HeLa; C. trachomatis total inclusion area by high-content imaging, normalised to DMSO. To be noted: total inclusion area; 28.5 h, 10 µM; inhibitor. In outline:
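Bulk GFP and resorufin signals were read first. Wells were then fixed, stained with Hoechst and imaged to detect GFP inclusions and host nuclei. MICs followed the previously described calculation.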
With `O=C(c1cncnc1)N1CCC(F)CC1` [CBK200384], the “% of control remaining” value came out at 97.0253.

As for `CSCC[C@@H]1NC(=O)N(c2ccc(CN3CCOCC3)cc2)C1=O` [CBK287954], the “% of control remaining” value was 137.732.

In the case of `CCN1CCN(c2ccc(NC(=O)c3cc(-n4cnnc4)ccc3Cl)cc2Cl)CC1` [CBK269343], the “% of control remaining” value is 107.715.

On to `O=C(N/N=C/c1ccccc1Cl)c1ccc(C(=O)N/N=C/c2ccccc2Cl)cc1` [CBK261698], for which the “% of control remaining” value is 98.1662.

For the compound `Cc1cccc(C(=O)NNC(=O)c2cccc(Cl)c2)c1` [CBK261676], the “% of control remaining” value is on record as 98.9905.

On to `CCC(CNC(=O)c1cccc(C)n1)N1CCCC1` (stereo not drawn) [CBK304803], for which the “% of control remaining” value is listed as 68.5433.

With `O=C1CCC(=O)N1CCOc1nccnc1OC1CCN(CC2CCCCC2)CC1` [CBK084357], the “% of control remaining” value is 89.1688.

In the case of `CCCc1cc(=O)oc2cc(OCc3ccc(C(=O)O)o3)ccc12` [CBK264786], the “% of control remaining” value was found to be 94.3751.

Regarding `COc1ccc(CCNC(=O)C(N)=O)cc1OC` [CBK288457], the “% of control remaining” value was 64.4723.

Regarding `N=c1n(CCN2CCOCC2)c2ccccc2n1CC(O)c1cccs1` (stereo not drawn) [CBK262895C], the “% of control remaining” value was determined as 83.9156.

For `CCn1ncnc1CN1CCN(C2Cc3ccccc3C2)CC1` [CBK304401], the “% of control remaining” value is recorded as 54.59.

For the compound `COc1cc(CNc2nccnc2-c2ccc(C(=O)N3CCOCC3)cc2)cc(OC)c1` [CBK036866], the “% of control remaining” value is given as 97.4457.

As for `C[C@H](c1ccccc1)n1c(=O)[nH]c2ncc(-c3cccc4cccnc34)nc21` [CBK064237], the “% of control remaining” value worked out at 88.4673.

For `CCNC(=O)C1(Cc2ccccc2-c2ccncc2)CCOCC1` [CBK285216], the “% of control remaining” value was determined as 107.87.

As for `COc1ccc(OC)c(C(O)c2nc3ccccc3n2C(C)C)c1` (stereo not drawn) [CBK263474], the “% of control remaining” value came to 48.2292.

`Nc1cccc(-c2nc(-c3cccs3)cnc2N)c1` [CBK063923]: the “% of control remaining” value is 84.1245.

Take `CN(C)CCCNC(=O)c1ccc(/C=N/O)nc1` [CBK288489]: the “% of control remaining” value amounted to 109.005.

In the case of `O=C(NCc1ccc(Cl)cc1)c1cnc2ccc(CN3CCSCC3)cc2c1O` [CBK018010], the “% of control remaining” value is reported as 87.2704.

Consider `CN(C)CCN(C)C(=O)c1ccc(-c2cccc(N(C)C)c2)nc1N(C)C` [CBK106077], for which the “% of control remaining” value turned out to be 75.2031.

Take `O=C(CSc1nnc2sc3ccccc3n12)N1N=CCC1c1ccccc1` (stereo not drawn) [CBK266527]: the “% of control remaining” value is listed as 117.406.

`O=C(NCCNc1ccc([N+](=O)[O-])cc1Cl)c1ccc(F)cc1` [CBK262344]: the “% of control remaining” value worked out at 102.663.

For the compound `c1cncc(-c2nnc([C@H]3CCNC3)o2)c1` [CBK289396], the “% of control remaining” value stood at 81.2371.

On to `N=C(Nc1nc(CSc2nnc(N)s2)cc(=O)[nH]1)Nc1ccc(Cl)cc1Cl` [CBK268890], for which the “% of control remaining” value came to 83.2541.

For the compound `O=C(C1=C(O)C(=O)N(CCN2CCOCC2)C1c1cccnc1)c1ccco1` (stereo not drawn) [CBK264570], the “% of control remaining” value was found to be 110.385.

With `CCC#CC(=O)Nc1ccc(N2CCNCC2)nc1` [CBK004746T], the “% of control remaining” value is 87.8451.

Take `Cc1ccc(S(=O)(=O)N(Cc2c(F)cccc2F)C2CCNCC2)cc1` [CBK163927T]: the “% of control remaining” value is given as 55.9298.

Consider `Cc1ccccc1NC(=O)Cn1c(=O)cnc2ccccc21` [CBK287852], for which the “% of control remaining” value is 84.3402.

As to `CC(=O)N1CC2(CCN(Cc3nccn3C(C)C)CC2)CC1C(=O)O` (stereo not drawn) [CBK306587], the “% of control remaining” value is recorded as 66.3729.

`Cc1ccc(C(=O)C2=C(O)C(=O)N(CCCn3ccnc3)C2c2ccncc2)cc1` (stereo not drawn) [CBK264476]: the “% of control remaining” value is recorded as 110.897.

As for `Cc1cc(=O)n(CC(=O)NC(C)Cc2ccccn2)c2ccccc12` (stereo not drawn) [CBK281420], the “% of control remaining” value is 106.569.

In the case of `c1ccc2cc(-c3cn4ccnc4c(NC4CCOCC4)n3)ccc2c1` [CBK066290], the “% of control remaining” value turned out to be 119.102.

Take `COc1cc(C(=O)N2CCN(Cc3c[nH]c4ccccc34)CC2)cc(OC)c1OC` [CBK301212G]: the “% of control remaining” value is 94.0304.

With `CN1CCN(CCCN2C(=O)CSC2c2cccc([N+](=O)[O-])c2)CC1` (stereo not drawn) [CBK278237C], the “% of control remaining” value is listed as 73.9326.

`CCC(C)NC1=NC(=O)C(CC(=O)Nc2ccccc2Cl)S1` (stereo not drawn) [CBK059133T]: the “% of control remaining” value worked out at 93.8841.

With `CCCc1ccc(S(=O)(=O)Nc2c(C(=O)N(CC)CC)[nH]c3ccccc23)cc1` [CBK050111], the “% of control remaining” value was 99.8185.

For the compound `O=C(CSc1ccc2ccccc2n1)Nc1ccnc2ccccc12` [CBK176848], the “% of control remaining” value is reported as 59.8941.

In the case of `O=C(O)CNS(=O)(=O)c1cc(Cl)c(Cl)cc1Cl` [CBK266136], the “% of control remaining” value was determined as 125.881.

As for `Cc1cc(CN2CCC(O)(c3cccnc3F)CC2)oc1C` [CBK282124], the “% of control remaining” value turned out to be 101.048.

As for `Nc1nnc(SCC(=O)N2CCN(C(c3ccccc3)c3ccccc3)CC2)n1-c1ccccc1` [CBK266696], the “% of control remaining” value is recorded as 75.9551.

For the compound `O=C(O)c1cccc(NS(=O)(=O)c2ccc(S(=O)(=O)N3CCCCC3)cc2)c1` [CBK295295], the “% of control remaining” value was 107.237.

With `S=C(NCC1CCN(C(=S)Nc2cccc3ccccc23)CC1)Nc1cccc2ccccc12` [CBK016070], the “% of control remaining” value came to 87.8366.

For `N#CCCN(C(=O)NCc1cccc2ccccc12)C1CCCCC1` [CBK156353], the “% of control remaining” value was determined as 78.6143.

As to `COc1cccc(OCCO)c1` [CBK000514], the “% of control remaining” value came out at 107.245.

Consider `COc1cc(NC(=O)CC2(C(=O)O)CCCCC2)ccc1N1CCCC1=O` [CBK296761], for which the “% of control remaining” value is 117.143.

Consider `CCn1c(CNC(=O)c2cn3cc(C)ccc3n2)nc2ccccc21` [CBK281395], for which the “% of control remaining” value is recorded as 84.1612.

As for `O=C(NCCNCCNC(=O)C1(c2ccccc2)CCCC1)C1(c2ccccc2)CCCC1` [CBK017670], the “% of control remaining” value was 2.204.

Turning to `Cc1cccc(NC(=O)C(CC(=O)O)NCc2ccccc2)c1` (stereo not drawn) [CBK266821], the “% of control remaining” value came to 95.6153.

As for `CC(C)Nc1nc2cc(Cl)c(Cl)cc2nc1Sc1nc[nH]n1` [CBK115261], the “% of control remaining” value came to 88.6569.

`COc1cncc(-c2cncc(NCCCN3CCOCC3)n2)c1` [CBK037902]: the “% of control remaining” value stood at 93.3838.

For `COc1ccc(CCN2CCN(c3nccnc3OCC3COc4ccccc4O3)CC2)cc1OC` (stereo not drawn) [CBK082808T], the “% of control remaining” value was 72.7318.

With `CS(=O)(=O)c1ccc(Cn2ccnc(N3CCN(C(=O)C4CCCCC4)CC3)c2=O)cc1` [CBK153771], the “% of control remaining” value is recorded as 81.9993.

On to `CC(C)NC(=O)[C@@H](C)C1CC[C@@]2(C)CC[C@H](NC(=O)c3ccncc3)[C@@H](C)[C@@H]2[C@H]1O` (stereo partly drawn) [CBK289449], for which the “% of control remaining” value was determined as 122.397.

Take `Cc1ccc(C2(O)CCN(Cc3cnn(C)c3C)CC2)cc1` [CBK282736]: the “% of control remaining” value turned out to be 121.672.

With `Cc1nc(-c2cccnc2)[nH]c(=O)c1CC(=O)N(C)C1CCCCC1` [CBK306310], the “% of control remaining” value is given as 19.0671.

Consider `CCCCN(C)S(=O)(=O)c1ccc(C(C)(C)CC)cc1` [CBK044836], for which the “% of control remaining” value is given as 93.2686.

Take `Cc1ccc(-c2nnc(SCc3cccc4nsnc34)n2C)cc1` [CBK269706]: the “% of control remaining” value stood at 92.5628.

For the compound `O=c1[nH]c(Nc2ccccc2)nc2nccc(-c3ccccc3)c12` [CBK288072], the “% of control remaining” value was 99.3669.

Turning to `CN1CCN(c2ccccc2NC(=O)c2ccc3ccccc3c2)CC1` [CBK268486], the “% of control remaining” value was 88.0779.

Regarding `COc1ccc(-c2nccnc2NCC2CC2)cc1` [CBK038048], the “% of control remaining” value turned out to be 143.145.

As to `COc1ccc(C(C)C)cc1-c1nc2ncccc2cc1N` [CBK067614], the “% of control remaining” value is on record as 66.1055.

`Cc1cccc(NCC2CCN(Cc3cc(=O)n4ccccc4n3)C2)n1` (stereo not drawn) [CBK305756]: the “% of control remaining” value is given as 4.6.

`CN(C)CCNC(=O)c1sc2ccccc2c1CC1CCCCCN1C(=O)C1CCC1` (stereo not drawn) [CBK286096]: the “% of control remaining” value was 80.9182.

Take `COc1ccccc1-c1noc(C2CCN(S(=O)(=O)c3ccc(F)cc3)CC2)n1` [CBK269401]: the “% of control remaining” value is 90.7289.

For the compound `Cc1cccc(OCC(C)NC(=O)NCCc2cnn(C)c2)c1` (stereo not drawn) [CBK304887], the “% of control remaining” value is on record as 14.8301.

Turning to `NC(=O)C1(N2CCCCC2)CCN(CC(=O)Nc2ccccc2Sc2ccccc2)CC1` [CBK268488], the “% of control remaining” value was determined as 92.3008.

As for `Cc1nnnn1-c1cc(NC(=O)N(C)C(C)C)ccc1F` [CBK304708], the “% of control remaining” value was determined as 89.2336.

As to `O=[N+]([O-])c1ccccc1S(=O)(=O)Nc1ccc(S(=O)(=O)Nc2ncccn2)cc1` [CBK264768], the “% of control remaining” value was 64.1214.

In the case of `O=C(NC(=S)Nc1cccc2c(O)cccc12)c1ccc(-c2ccccc2)cc1` [CBK269022], the “% of control remaining” value is on record as 78.7809.

Consider `O=C(CSc1nnc2ccc(-c3ccccc3)nn12)N1CCCCC1` [CBK287678], for which the “% of control remaining” value was 96.3434.

For the compound `Cc1cnc2c(c1)cc(C(F)(F)F)n2CC(=O)NC1CC1` [CBK282887], the “% of control remaining” value is 91.4632.

For `O=C(O)[C@@H]1CCCN1C(=O)C1CCC(Cn2nnc3ccccc3c2=O)CC1` (stereo partly drawn) [CBK286658], the “% of control remaining” value came out at 98.0755.

In the case of `FC(F)(F)c1ccc(SCc2ccccc2)nc1` [CBK103715], the “% of control remaining” value was 93.8955.

`Cc1nc2sccn2c1CN1CCCC(C(=O)N2CCOCC2)C1` (stereo not drawn) [CBK305390]: the “% of control remaining” value is 69.5616.

On to `CCn1c(SCC(=O)Nc2cc(Cl)ccc2O)nnc1-c1ccccc1` [CBK269680], for which the “% of control remaining” value turned out to be 91.845.

`CC(C)COC(=O)N1CCN(C2CCc3cc(-c4ccc([S+](C)[O-])cc4)ccc3C2)CC1` (stereo not drawn) [CBK173425]: the “% of control remaining” value is 110.742.

Consider `O=C(C1CCCCC1)N1CCC(n2nc(C3CC3)ccc2=O)CC1` [CBK284240], for which the “% of control remaining” value came out at 98.9269.

`CC(=O)Nc1cccc(CN2CCCC2CC(O)c2ccccc2)c1` (stereo not drawn) [CBK305136]: the “% of control remaining” value is 81.3321.

In the case of `O=C(O)/C=C/C(=O)N(Cc1ccccn1)Cc1ccco1` [CBK286660], the “% of control remaining” value came out at 93.8127.

As to `Cc1cnc(CNC(=O)c2ccc(-c3ccoc3)nc2)cn1` [CBK156267], the “% of control remaining” value was 127.985.

With `Ic1cnn(Cc2nc(-c3ccc4c(c3)OCO4)no2)c1` [CBK270050], the “% of control remaining” value is 85.6606.

Consider `O=S(=O)(Nc1cccc2[nH]ccc12)c1sc(Cl)cc1Br` [CBK153552], for which the “% of control remaining” value was 96.6516.

Values taken from paper PMC12040169 (PLOS Biology, 2025).
